We go through 172 sequences from PMC10668032.

Some of the results follow. At the low end of the ranking, values are background and their order means little.

The target in this test is SIX1 homeodomain (reference allele) (UniProt Q15475). In words: universal protein binding microarray. The following applies: Universal all-10-mer PBM (8x60K, AMADID 030236), 300 nM GST-tagged protein, Alexa Fluor 488 anti-GST; buffer, salt, pH and temperature not stated; high values mean tight binding; most listed sequences are background and not binding sites; double strand, one strand shown.
Turning to CAGTCCCA, the binding signal is -0.102 E-score. ATTCGTGA: the binding signal was -0.0133 E-score. The result for GCGGCACA reads -0.124 E-score.

As for AGTGATTA, the binding signal came out at 0.0197 E-score. For AAGGCTAC, the binding signal was -0.147 E-score.

With GCCGCGGC, the binding signal was -0.0384 E-score. As for CATATGCA, the figure is 0.0732 E-score; as for AGCTGCAG, -0.0923 E-score; as for ATGCGAGC, -0.0226 E-score. As for CCTCACCG, the figure is -0.0626 E-score. In the case of TCTGTTAA, the binding signal is -0.136 E-score. The result for ATTCGCTA reads -0.153 E-score; that for CAAAATAG, -0.146 E-score; that for TACGCATA, 0.197 E-score. As for ATGTCAAT, the figure is -0.0431 E-score; as for TGGTGAAA, -0.138 E-score; as for CATACTTC, -0.053 E-score. As for CAGTCTCG, the figure is -0.151 E-score; as for GCGAATAC, 0.115 E-score.

As to AGACACGC, the binding signal was -0.0736 E-score. The result for TCGATTAA reads 0.0867 E-score; that for CAGGTGCG, -0.109 E-score; that for TGAAGACA, -0.1 E-score. As for CGATTTAC, the figure is -0.0792 E-score; as for TACCCATA, 0.222 E-score; as for CACTATCG, 0.211 E-score. For AGAGACCA, the binding signal is -0.022 E-score. Take AATTATGC: the binding signal was -0.317 E-score. As for GGATTCAA, the figure is 0.097 E-score; as for CGCAACGC, -0.34 E-score; as for GATGGCGA, -0.0737 E-score. As for CGCCCGTC, the figure is -0.0478 E-score. As for CCCCTGTC, the figure is -0.00686 E-score; as for CCGTCTCC, 0.217 E-score.

Regarding GGATTGAA, the binding signal amounted to 0.106 E-score.

For the sequence TGCCGTAA, the binding signal is -0.202 E-score.

On to AGTCAGAT, for which the binding signal was found to be 0.155 E-score.

ACAGGTGG: the binding signal is -0.0589 E-score. Take GCGGAGGA: the binding signal is -0.135 E-score. For the sequence CCACGCAG, the binding signal is -0.0301 E-score.

As to AATACACG, the binding signal was determined as 0.124 E-score. The result for AAGCGTCC reads -0.187 E-score; that for TCCTTACA, 0.0277 E-score. As for CTTCACAC, the figure is -0.0185 E-score; as for AATCATTG, -0.136 E-score. With CGCTACGA, the binding signal is -0.0142 E-score.

In the case of CGTGTCTC, the binding signal turned out to be 0.0982 E-score.

For GCCTTCCC, the binding signal was -0.306 E-score.

In the case of GGACCAAC, the binding signal was -0.257 E-score. Turning to CACTGCTA, the binding signal was -0.0991 E-score.

Take AAGAATCG: the binding signal is 0.00046 E-score. For GGGAGCTA, the binding signal was -0.153 E-score. Take AACATTTA: the binding signal is -0.176 E-score.

Turning to CTCTACAG, the binding signal worked out at 0.0472 E-score. Consider CACTGAAG, for which the binding signal is -0.238 E-score.

Turning to CCCACGAC, the binding signal is -0.0571 E-score. As to ACCCTCCT, the binding signal is 0.0716 E-score. The result for AAGAATCT reads -0.165 E-score; that for CCCCAGCC, -0.0267 E-score; that for ATTAGCAA, 0.101 E-score. As to CCTGACGA, the binding signal is -0.0776 E-score. The result for GAGGGGAA reads -0.0367 E-score; that for CTTTACTA, -0.17 E-score. As for ATGCATTC, the figure is -0.132 E-score; as for GCTTTAAA, -0.146 E-score; as for GATCGCGC, 0.197 E-score.

With AAGTTATT, the binding signal was -0.193 E-score. For the sequence GTGTTATA, the binding signal was 0.219 E-score. The result for CGGTTCCA reads -0.133 E-score; that for GAAATACC, 0.185 E-score. As for AGCCGATA, the figure is 0.299 E-score. In the case of CCGAAAGC, the binding signal was -0.184 E-score.

With ATGATCGC, the binding signal is 0.265 E-score. Consider ACATCAGT, for which the binding signal was -0.174 E-score. As for TACGTTAA, the figure is -0.0693 E-score. On to TACACGGA, for which the binding signal stood at 0.173 E-score. The result for AAGACCGG reads -0.101 E-score; that for GGCACCTA, -0.086 E-score. The result for CTCATGCC reads -0.0993 E-score; that for CAGGGGGC, -0.174 E-score.

As to ACCCGTAT, the binding signal is 0.391 E-score. Regarding CCGGGACC, the binding signal is -0.0868 E-score. The result for ATCGGCAA reads 0.116 E-score; that for CCGCCCCC, -0.0493 E-score; that for CACCTCGC, 0.0316 E-score. As for CAACTGCG, the figure is -0.101 E-score. With CGGTTTCA, the binding signal was determined as 0.152 E-score. Turning to CCTGGTCA, the binding signal was -0.0651 E-score. With GTCCCTGA, the binding signal was -0.133 E-score. On to CCTACAGA, for which the binding signal was -0.0536 E-score. As to TCGCACCA, the binding signal is 0.0105 E-score. As for TAGTCATA, the figure is 0.0341 E-score; as for CTCCTCGA, -0.0638 E-score. As to CACAGCGA, the binding signal is 0.0447 E-score. As for ATGACGGA, the figure is -0.0239 E-score; as for TCGTTAGA, 0.0288 E-score. With ACGCAGAA, the binding signal is -0.0863 E-score.

On to TTATGGAA, for which the binding signal is -0.176 E-score. For the sequence CCCTTGAC, the binding signal is -0.077 E-score. In the case of GGATGGCC, the binding signal was -0.063 E-score. As for ACGTGCCA, the figure is -0.0867 E-score. Regarding ATGGGAGC, the binding signal is -0.0721 E-score. On to AGCTGGAC, for which the binding signal was -0.0395 E-score. On to CTTTCTAC, for which the binding signal was -0.0374 E-score.

In the case of ACATCTGC, the binding signal is -0.125 E-score. CCAAGGTA: the binding signal was -0.0461 E-score. Take CTAGGGGC: the binding signal is -0.137 E-score.

In the case of CCCATCCC, the binding signal was determined as 0.154 E-score. The result for CACGCATG reads -0.0875 E-score; that for AAAGAAAC, -0.138 E-score; that for GACAGATA, 0.324 E-score. As for CAAAATGA, the figure is -0.077 E-score; as for AGCTGCTG, -0.163 E-score. As for AATATCAA, the figure is 0.225 E-score.

Consider ACTGCCGA, for which the binding signal was determined as 0.131 E-score. CCAGTAGG: the binding signal is -0.123 E-score. Regarding CCACTCGA, the binding signal came out at 0.0984 E-score.

AGCCTCTA: the binding signal was 0.000285 E-score.

Take CCGGTATC: the binding signal worked out at 0.465 E-score.

As for AAACCGCA, the binding signal was -0.131 E-score. For the sequence GGGCAAAA, the binding signal is -0.0723 E-score.

In the case of AAATATTC, the binding signal was -0.0276 E-score.

In the case of ACGTCCGG, the binding signal is -0.191 E-score. On to GAGCCATC, for which the binding signal was determined as 0.0213 E-score. The result for TATTCTGA reads 0.01 E-score; that for ACTCTCGC, -0.047 E-score; that for AAGACTAA, 0.0124 E-score.

For the sequence CCGCTTGA, the binding signal is -0.076 E-score. Turning to ATCCAATG, the binding signal was 0.175 E-score. As for CGTCGCAA, the figure is -0.17 E-score; as for AGCGTCAA, -0.103 E-score. For the sequence CGGGGTGA, the binding signal turned out to be 0.198 E-score.

On to GCTCTTAC, for which the binding signal was -0.143 E-score. As for CTGGCGCA, the figure is -0.235 E-score; as for GATATGCA, 0.403 E-score. For the sequence AAGTAATC, the binding signal is -0.022 E-score. As to AGTCGTGC, the binding signal is -0.381 E-score. The result for GAGACACA reads 0.175 E-score; that for TGGATCAA, 0.306 E-score.

For the sequence TACCGGAA, the binding signal is -0.00044 E-score. CGCAGCTC: the binding signal is -0.0286 E-score. As for CTAGCTGA, the figure is 0.0507 E-score; as for AGCCAAAT, -0.134 E-score; as for ACTATTCA, -0.0552 E-score. AAATACGT: the binding signal was -0.0622 E-score. The result for GGAAGTAC reads -0.212 E-score. TAATATAA: the binding signal is 0.257 E-score. As for AAATAGGG, the figure is 0.00936 E-score; as for ATCTCGCC, 0.0882 E-score. For AGGTCTTA, the binding signal is -0.0877 E-score.

As to TATCATGA, the binding signal amounted to 0.382 E-score.

In the case of GCGGCGTA, the binding signal was -0.0537 E-score.

With CTCGGTGA, the binding signal was found to be 0.0111 E-score. On to ACGAGAGA, for which the binding signal is -0.00677 E-score. As for CTATCTAA, the figure is 0.0125 E-score; as for AGGGCTAG, -0.099 E-score; as for ACCGCGAT, 0.323 E-score. For CACTGTGG, the binding signal is 0.0625 E-score. AGGCGCAG: the binding signal is -0.14 E-score.

Turning to AACGTCAG, the binding signal was -0.307 E-score. The result for CTAACACA reads -0.0192 E-score; that for CGAAAACG, -0.154 E-score; that for CCGAAGCA, -0.0149 E-score. The result for CGTTGGAG reads -0.127 E-score; that for ATCTAGCA, 0.0761 E-score. The result for CAGGTACG reads 0.08 E-score; that for CGGTTTGA, 0.0547 E-score. As to CCATTCAC, the binding signal was -0.092 E-score. Regarding ACATATCG, the binding signal was determined as 0.389 E-score. Consider ATCTTTGG, for which the binding signal came out at 0.00602 E-score.

For the sequence CCTAAGAG, the binding signal is -0.0494 E-score. As for GAGCCCTC, the figure is -0.0567 E-score.
